Laboratory results published in the RNAGym collection of RNA variant scans (doi:10.1093/nar/gkz1192).
The source gives no read counts; variants with many changes may rest on few reads.

B1: CPEB3 Ribozyme (parent)
chain: UAACAGGGGGCCACAGCAGAAGCGUUCACGUCGCAGCCCCUGUCAGAUUCUGGUGAAUCUGCGAAUUCUGCUGUAUAUCUC

Variants of: B1
Test: self-cleavage, relative activity (ratio to wild type); higher = more cleavage; in vitro, sequencing
Outline: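 For each CPEB3 ribozyme variant, relative activity is its cleaved/total read fraction divided by the unmutated ribozyme's. Barcoded error-prone PCR libraries were transcribed by T7 RNA polymerase (5 hours, 37°C) and held in DNase I for 15 min before an EDTA stop, with cleavage occurring throughout. Template-switching reverse transcription and Illumina sequencing were used to read the RNAs. A 5-read minimum applied, and results are the mean of three batches.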

Variant | self-cleavage
UAACAGGGGGCCACAGCGGAAGCGGUCACGUCGCAGCCCCCGUUAGAUUCUGGUGAAUCAGCGAAUUCUGCUGUAUAUCUC [A18G U25G U41C C44U U60A] | 0.05
UAACAGGGGGCCACAGCGGAAGCGUACGCGUCGCAGCCCCUGUCAGAUUCUGGUGAAUCAGCGAAUUCUGCUGUAUAUCUC [A18G U26A A28G U60A] | 0.08
UAACAGGGGGCCACAGCGGAAGCGUACACGUCGCUGCCCCCGUCAGAUUCUGGUGAAUCAGCGAGUUCUGCCGUAUAUCUC [A18G U26A A35U U41C U60A A65G U72C] | 0.07
UAACAGGGGGCCACAGCGGAAGCGUACACGUCGCUGCCCCUGCCAGAUUCUGGUGAAUCUGCGAAUUCUGCUGUAUAUCUC [A18G U26A A35U U43C] | 0.24
UAACAGGGGGCCACAGCGGAAGCGUACACGUCGCAGCCCCUGUCAGAUUCUGGUGAAUCUGCGAGUUCUGCAGUAUAUCUC [A18G U26A A65G U72A] | 0.21
UAACAGGGGGCCACAGCGGAAGCGUACAUGUCGCGGCCCCUGUCAGAUUCUGGUGCAUCUGCAAAUUCUGCUGUAUAUCUC [A18G U26A C29U A35G A56C G63A] | 0.29
UAACAGGGGGCCACAGCGGAAGCGUACACGCCGCAGCCCCCGUCAGAUUCUGGUGAAUCUGCGAAUUCUGCUGUAUACCUC [A18G U26A U31C U41C U78C] | 0.03
UAACAGGGGGCCACAGCGGAAGCGUACACGUCGCAGCCCCUGUCAGAUUCUGGUGAAUCUGCGAAUUCGGCUGUAUAUCUC [A18G U26A U69G] | 0.3
UAACAGGGGGCCACAGCGGAAGCGUCCGCGUCGCAGCCCCCGUCAGAUACUGGUGAAUUUGCGAAUUCUGCUGUAUAUCUC [A18G U26C A28G U41C U49A C59U] | 0.02
UAACAGGGGGCCACAGCGGAAGCGUCCACGUCGCAGCCCCUGUCGGAUUCUGGUGAAUCUGCGAAUUCUGCUGUAAAUCUC [A18G U26C A45G U76A] | 0.33
UAACAGGGGGCCACAGCGGAAGCGUCCACGCCGCAGCCCCUGUGAGAUUCUGGUGAAUCUGCGAAUUCUGCUGUAUAUCUC [A18G U26C U31C C44G] | 0.34
UAACAGGGGGCCACAGCGGAAGCGUCCACGUCGCAGCCCCAGUCAGAUUCUGGUGAAUCUGCGAAUUCUGCUGUAUAUCUC [A18G U26C U41A] | 0.05
UAACAGGGGGCCACAGCGGAAGCGUCCACGUCGCAGCCCCUGUCAGAUUCCGGUGAAUCUGCGAAUUCUGCUGUAUAUCUC [A18G U26C U51C] | 0.13
UAACAGGGGGCCACAGCGGAAGCGUGCGCGUCGCAGCCCCGGUCAGAUUCUGGUGAAUCUGCGAAUUCUGCUGUAUAUCUC [A18G U26G A28G U41G] | 0.45
UAACAGGGGGCCACAGCGGAAGCGUUCACGACGCAGCCCCUGUCAGAUUCUGGUGAAUCUGCGAAUCCUGCUGUAUAUCUC [A18G U31A U67C] | 0.11
UAACAGGGGGCCACAGCGGAAGCGUUCACGCCGCGGCCCCUGUCAGAUUCUGGUGAAUCUGCGAAUUCUGCUGUAUAUCUC [A18G U31C A35G] | 0.5
UAACAGGGGGCCACAGCGGAAGCGUUCACGCCACAGCCCCUAUCAGAUUCUGGUGAGUCUGCGAAUUCUGCGGUAUAUCUC [A18G U31C G33A G42A A57G U72G] | 0.09

Variant | self-cleavage
UAACAGGGGGCCACAGCGGAAGCGUUCACGCCGCAGCCCCUGUCAGACUCUGGUGAACCUGCGAGUUCAACUGUAUAUCUC [A18G U31C U48C U58C A65G U69A G70A] | 0.01
UAACAGGGGGCCACAGCGGAAGCGUUCACGCCGCAGCCCCUGUCAGAUCCUGGUGAUUCUGCGAAUUCUGCUGUAUAUCUC [A18G U31C U49C A57U] | 0.11
UAACAGGGGGCCACAGCGGAAGCGUUCACGCCGCAGCCCCUGUCAGAUUCUGGUGAAUCCGUGAAUUCUGCUGUAUAUCUC [A18G U31C U60C C62U] | 0.12
UAACAGGGGGCCACAGCGGAAGCGUUCACGCCGCAGCCCCUGUCAGAUUCUGGUGAAUCUGCGAACUCUGCUGUAUAUCUC [A18G U31C U66C] | 0.37
UAACAGGGGGCCACAGCGGAAGCGUUCACGCCGCAGCCCCUGUCAGAUUCUGGUGAAUCUGCGAAUCCUGCUGUAUAUCUC [A18G U31C U67C] | 0.07
UAACAGGGGGCCACAGCGGAAGCGUUCACGGCGCAGCCCCUGUCAGAUUCUGGAGAAUCUGCGAAUUCUGCUGUAUAUCUC [A18G U31G U54A] | 0.43
UAACAGGGGGCCACAGCGGAAGCGUUCACGGCGCAGCCCCUGUCAGAUUCUGGCGAAUCAGCGAACUCUGCUGUAUACCCC [A18G U31G U54C U60A U66C U78C U80C] | 0.08
UAACAGGGGGCCACAGCGGAAGCGUUCACGUCGCAGCCCCAGUCUGAUUCUGGUGAAUCUGCGGAUUCUGCUGUAUAUCUC [A18G U41A A45U A64G] | 0.09
UAACAGGGGGCCACAGCGGAAGCGUUCACGUCGCAGCCCCAGUCAGAUUCUGGUGGAUCUGCGAAUUCUGCUGUAUACCUC [A18G U41A A56G U78C] | 0.08
UAACAGGGGGCCACAGCGGAAGCGUUCACGUCGCAGCCCCAGUCAGAUUCUGGUAAAUCUGCGAACUCUGCCGUAUAUCUC [A18G U41A G55A U66C U72C] | 0.41
UAACAGGGGGCCACAGCGGAAGCGUUCACGUCGCAGCCCCAGACAGAUUCUGGUGAAACUGCGAAUCCAGCUGUAUAUCCC [A18G U41A U43A U58A U67C U69A U80C] | 0.03
UAACAGGGGGCCACAGCGGAAGCGUUCACGUCGCAGCCCCAGUCAGAUUCCGGUGAAUCUGCGAAUUCUGCUGUAUAUCUC [A18G U41A U51C] | 0.22
UAACAGGGGGCCACAGCGGAAGCGUUCACGUCGCAGCCCCAGUCAGAUUCCGGUGAAUCUGCGAAUUCUGCCGUAUAUCUC [A18G U41A U51C U72C] | 0.11
UAACAGGGGGCCACAGCGGAAGCGUUCACGUCGCAGCCCCCGUCCCAUUCUGGUGAAUCUGCGAAUCCUGCCGUAUAUCUC [A18G U41C A45C G46C U67C U72C] | 0.12
UAACAGGGGGCCACAGCGGAAGCGUUCACGUCGCAGCCCCCGUCGGAUUCUGGUGAAUCUGCGAAUACUGCUGAAUAUCUC [A18G U41C A45G U67A U74A] | 0.31
UAACAGGGGGCCACAGCGGAAGCGUUCACGUCGCAGCCCCCGUCAGAUUCUGGUGAAUCUGCGAAUUCUGCUGUAUUUCUC [A18G U41C A77U] | 0.58
UAACAGGGGGCCACAGCGGAAGCGUUCACGUCGCAGCCCCCGCCAGAUUCUGGUGAAUCUGCGAAUUCUGCUGUAUAUCUC [A18G U41C U43C] | 0.41
